Data reported in US20250177546A1, “ROR1-TARGETED BINDING MOLECULE AND USE THEREOF” (SANYOU BIOPHARMACEUTICALS CO., LTD., priority 2022, published 2025).

Columns and labels:
Jeko-1 tumor = assay: ADC efficacy in mouse model bearing Jeko-1 tumor; type: in vivo
A549 tumor = assay: ADC efficacy in mouse model bearing A549 tumor; type: in vivo; conditions: 10 mpk
HT-29 tumor = assay: ADC efficacy in mouse model bearing HT-29 tumor; type: in vivo
Jeko-1 cells = assay: ADC tumor cell killing, CCK8 assay, Jeko-1; type: cell-based, human; conditions: CCK8, 72 h
HT-29 tumor cells = assay: ADC internalization efficiency by FACS, HT-29; type: cell-based, human; conditions: relative to positive control ADC
MDA-MB-468 cells = assay: ADC tumor cell killing, CCK8 assay, MDA-MB-468; type: cell-based, human; conditions: CCK8, 72 h

B1: B31-H3L3-MMAE (conjugate)
heavy: EVQLVESGGGLVQPGGSLRLSCAASGFTFSRYAMSWVRQAPGKGLEWVASISRGGSTYYADSVKGRFTISRDNSKNTLYLQMNSLRAEDTAVYYCASYFGNYDAMDYWGQGTTVTVSS[human IgG1 constant region not listed]
light: DIQMTQSPSSLSASVGDRVTITCRASQDINNYVSWFQQKPGKAPKSLIYRANRLVSGVPSRFSGSGSGTDFTFTISSLQPEDFATYYCLQFDEFPYTFGGGTKLEIKRTVAAPSVFIFPPSDEQLKSGTASVVCLLNNFYPREAKVQWKVDNALQSGNSQESVTEQDSKDSTYSLSSTLTLSKADYEKHKVYACEVTHQGLSSPVTKSFNRGEC
Tumor growth inhibition (TGI) (Jeko-1 tumor; 2.5 mpk, QW*3, day 29): 47.48% | Tumor growth inhibition (TGI) (Jeko-1 tumor; 2.5 mpk, QW*3, day 31): 53.56% | Tumor growth inhibition (TGI) (Jeko-1 tumor; 2.5 mpk, QW*3, day 34): 58.44% | Tumor growth inhibition (TGI) (Jeko-1 tumor; 2.5 mpk, QW*3, day 36): 61.76% | Tumor growth inhibition (TGI) (Jeko-1 tumor; 2.5 mpk, QW*3, day 38): 64.21% | Tumor growth inhibition (TGI) (Jeko-1 tumor; 2.5 mpk, QW*3, day 41): 60.47% | tumor recurrence (Jeko-1 tumor; 10 mpk QW*3, 23 days after administration): not observed | tumor recurrence (Jeko-1 tumor; 10 mpk single dose, 23 days after administration): no tumor recurrence was observed | Tumor growth inhibition (TGI) (Jeko-1 tumor; 10 mpk, QW*3, day 17): 3.63% | Tumor growth inhibition (TGI) (Jeko-1 tumor; 10 mpk, QW*3, day 20): 26.96% | Tumor growth inhibition (TGI) (Jeko-1 tumor; 10 mpk, QW*3, day 22): 52.36% | Tumor growth inhibition (TGI) (Jeko-1 tumor; 10 mpk, QW*3, day 24): 61.53% | Tumor growth inhibition (TGI) (Jeko-1 tumor; 10 mpk, QW*3, day 27): 83.08% | Tumor growth inhibition (TGI) (Jeko-1 tumor; 10 mpk, QW*3, day 29): 89.03% | Tumor growth inhibition (TGI) (Jeko-1 tumor; 10 mpk, QW*3, day 31): 94.30% | Tumor growth inhibition (TGI) (Jeko-1 tumor; 10 mpk, QW*3, day 34): 96.02% | Tumor growth inhibition (TGI) (Jeko-1 tumor; 10 mpk, QW*3, day 36): 95.68% | Tumor growth inhibition (TGI) (Jeko-1 tumor; 10 mpk, QW*3, day 38): 96.28% | Tumor growth inhibition (TGI) (Jeko-1 tumor; 10 mpk, Single dose, day 17): 6.54% | Tumor growth inhibition (TGI) (Jeko-1 tumor; 10 mpk, Single dose, day 20): 28.99% | Tumor growth inhibition (TGI) (Jeko-1 tumor; 10 mpk, Single dose, day 22): 45.06% | Tumor growth inhibition (TGI) (Jeko-1 tumor; 10 mpk, Single dose, day 24): 59.45% | Tumor growth inhibition (TGI) (Jeko-1 tumor; 10 mpk, Single dose, day 27): 74.96% | Tumor growth inhibition (TGI) (Jeko-1 tumor; 10 mpk, Single dose, day 29): 86.03% | Tumor growth inhibition (TGI) (Jeko-1 tumor; 10 mpk, Single dose, day 31): 90.48% | Tumor growth inhibition (TGI) (Jeko-1 tumor; 10 mpk, Single dose, day 34): 89.15% | Tumor growth inhibition (TGI) (Jeko-1 tumor; 10 mpk, Single dose, day 36): 86.44% | Tumor growth inhibition (TGI) (Jeko-1 tumor; 10 mpk, Single dose, day 38): 84.62% | Tumor growth inhibition (TGI) (Jeko-1 tumor; 10 mpk, Single dose, day 41): 79.24% | anti-tumor effect relative to positive control ADC (A549 tumor; BIW*3): superior to that of the positive control ADC | Tumor growth inhibition (TGI) (A549 tumor; tail vein BIW*3, day 27): 8.75% | Tumor growth inhibition (TGI) (A549 tumor; tail vein BIW*3, day 31): 32.35% | Tumor growth inhibition (TGI) (A549 tumor; tail vein BIW*3, day 34): 40.25% | Tumor growth inhibition (TGI) (A549 tumor; tail vein BIW*3, day 38): 49.82% | Tumor growth inhibition (TGI) (A549 tumor; tail vein BIW*3, day 41): 51.16% | Tumor growth inhibition (TGI) (A549 tumor; tail vein BIW*3, day 45): 47.39% | Tumor growth inhibition (TGI) (A549 tumor; tail vein BIW*3, day 48): 43.98% | Tumor growth inhibition (TGI) (HT-29 tumor; 0.4 mpk, tail vein BIW*4, day 23): −2.50% | Tumor growth inhibition (TGI) (HT-29 tumor; 0.4 mpk, tail vein BIW*4, day 27): 8.22% | Tumor growth inhibition (TGI) (HT-29 tumor; 0.4 mpk, tail vein BIW*4, day 30): −0.94% | Tumor growth inhibition (TGI) (HT-29 tumor; 0.4 mpk, tail vein BIW*4, day 34): −5.59% | Tumor growth inhibition (TGI) (HT-29 tumor; 0.4 mpk, tail vein BIW*4, day 37): 4.75% | Tumor growth inhibition (TGI) (HT-29 tumor; 0.4 mpk, tail vein BIW*4, day 41): 9.43% | Tumor growth inhibition (TGI) (HT-29 tumor; 0.4 mpk, tail vein BIW*4, day 44): 12.34% | Tumor growth inhibition (TGI) (HT-29 tumor; 0.4 mpk, tail vein BIW*4, day 48): 17.92% | Tumor growth inhibition (TGI) (HT-29 tumor; 0.4 mpk, tail vein BIW*4, day 51): 16.05% | Tumor growth inhibition (TGI) (HT-29 tumor; 2 mpk, tail vein BIW*4, day 23): −7.50% | Tumor growth inhibition (TGI) (HT-29 tumor; 2 mpk, tail vein BIW*4, day 27): 8.48% | Tumor growth inhibition (TGI) (HT-29 tumor; 2 mpk, tail vein BIW*4, day 30): 6.86% | Tumor growth inhibition (TGI) (HT-29 tumor; 2 mpk, tail vein BIW*4, day 34): 0.99% | Tumor growth inhibition (TGI) (HT-29 tumor; 2 mpk, tail vein BIW*4, day 37): 4.88% | Tumor growth inhibition (TGI) (HT-29 tumor; 2 mpk, tail vein BIW*4, day 41): 6.70% | Tumor growth inhibition (TGI) (HT-29 tumor; 2 mpk, tail vein BIW*4, day 44): 9.97% | Tumor growth inhibition (TGI) (HT-29 tumor; 2 mpk, tail vein BIW*4, day 48): 14.09% | Tumor growth inhibition (TGI) (HT-29 tumor; 2 mpk, tail vein BIW*4, day 51): 15.37% | Tumor growth inhibition (TGI) (HT-29 tumor; 10 mpk, tail vein BIW*4, day 23): −5.56% | Tumor growth inhibition (TGI) (HT-29 tumor; 10 mpk, tail vein BIW*4, day 27): 17.16% | Tumor growth inhibition (TGI) (HT-29 tumor; 10 mpk, tail vein BIW*4, day 30): 36.56% | Tumor growth inhibition (TGI) (HT-29 tumor; 10 mpk, tail vein BIW*4, day 34): 59.72% | Tumor growth inhibition (TGI) (HT-29 tumor; 10 mpk, tail vein BIW*4, day 37): 73.42% | Tumor growth inhibition (TGI) (HT-29 tumor; 10 mpk, tail vein BIW*4, day 41): 83.01% | Tumor growth inhibition (TGI) (HT-29 tumor; 10 mpk, tail vein BIW*4, day 44): 85.35% | Tumor growth inhibition (TGI) (HT-29 tumor; 10 mpk, tail vein BIW*4, day 48): 85.16% | Tumor growth inhibition (TGI) (HT-29 tumor; 10 mpk, tail vein BIW*4, day 51): 85.53% | tumor inhibition effect (HT-29 tumor; high-dose (10 mpk), BIW*4): significant tumor inhibition effects | tumor inhibition effect relative to 99961.1-MMAE (HT-29 tumor; high-dose (10 mpk), BIW*4): equivalent to that of 99961.1-MMAE | EC50 (Jeko-1 cells): 38.2 nM | internalization rate in HT-29 cells (HT-29 tumor cells): slightly higher than that of the positive control ADC | EC50 (MDA-MB-468 cells): 15.2 nM
